From PubChem BioAssay AID488969 (Vanderbilt High Throughput Screening Facility, 2010)
Over roughly 110,000 compounds, “z-score” has its median near -0.1; the highest 2% begin near 2. The list shows a part of the results. Calls of active or inactive are those of the source.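 The calls were made as follows: active = z-score in the third read window above 3 or below -3; inactive = the rest.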

Biological target: Metabotropic glutamate receptor 8 (Rattus norvegicus) (UniProt P70579)
Test: rat mGluR8 modulators via GIRK flux, primary screen, cell-based, thallium flux, HTS (AID 488969)
Conditions: HEK293 rat mGluR8, GIRK (G protein-gated inwardly rectifying potassium channel) thallium flux, FluoZin2; at 10 µM; stronger effect = higher value; submaximal glutamate (EC20) added with thallium

UniProt P70579, sequence (P70579 whole entry, looked up): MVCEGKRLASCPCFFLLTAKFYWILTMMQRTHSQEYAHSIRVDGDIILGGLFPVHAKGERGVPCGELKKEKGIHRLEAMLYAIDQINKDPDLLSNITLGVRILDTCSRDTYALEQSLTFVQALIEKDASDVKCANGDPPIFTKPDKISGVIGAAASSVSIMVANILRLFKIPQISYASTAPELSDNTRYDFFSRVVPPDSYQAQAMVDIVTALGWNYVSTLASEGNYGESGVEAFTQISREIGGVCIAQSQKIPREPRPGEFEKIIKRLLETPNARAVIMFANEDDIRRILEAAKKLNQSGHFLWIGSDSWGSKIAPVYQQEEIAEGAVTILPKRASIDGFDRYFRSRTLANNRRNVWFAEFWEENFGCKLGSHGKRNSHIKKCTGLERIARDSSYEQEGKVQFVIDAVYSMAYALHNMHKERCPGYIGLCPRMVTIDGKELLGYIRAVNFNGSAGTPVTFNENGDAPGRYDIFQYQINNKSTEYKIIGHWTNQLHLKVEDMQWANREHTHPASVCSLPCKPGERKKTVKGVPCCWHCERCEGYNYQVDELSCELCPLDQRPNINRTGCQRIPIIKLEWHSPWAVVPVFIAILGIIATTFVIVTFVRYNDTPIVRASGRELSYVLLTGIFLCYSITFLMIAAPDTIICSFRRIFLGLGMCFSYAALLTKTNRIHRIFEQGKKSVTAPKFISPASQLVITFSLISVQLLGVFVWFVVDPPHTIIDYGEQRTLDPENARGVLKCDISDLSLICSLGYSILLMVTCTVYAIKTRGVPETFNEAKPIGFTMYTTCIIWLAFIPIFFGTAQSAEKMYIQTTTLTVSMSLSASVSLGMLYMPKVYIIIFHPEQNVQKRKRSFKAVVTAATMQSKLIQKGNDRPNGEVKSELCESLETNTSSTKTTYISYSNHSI

SMILES	z-score
Cc1cccc(OCCC(=O)NCC(=O)Nc2cccc(C)c2C)c1	-0.13
COCCOC(=O)C1=C(C)NC(=O)NC1c1c(Cl)nc2c(C)cccn2c1=O (stereo unspecified)	0.162
Cc1cccc(C(=O)NCc2ccc(S(N)(=O)=O)cc2)c1[N+](=O)[O-]	0.854
CCCc1nc2ccccc2[nH]1	-0.0405
Cc1ccc2c(c1)nnn2C1CCN(CC(=O)NCCc2nc3ccccc3[nH]2)CC1	-0.0547
COC(=O)c1ccc(NC(=O)c2cccc(OC)c2)cc1	0.446
COc1ccc(CCNC(=O)COc2ncnc3cc([N+](=O)[O-])ccc23)cc1	-0.00921
Cc1nnc(NC(=O)C2C3C=CC(O3)C2C(=O)O)s1 (stereo unspecified)	0.115
O=c1oc2ccccc2c(NCCc2ccccc2)c1[N+](=O)[O-]	-0.511
O=C(Nc1ccccc1C(=O)OC1CCOC1=O)c1ccco1 (stereo unspecified)	-0.352
O=C(/C=C1\SC(=O)N(CC(=O)Nc2ccc(Cl)cc2)C1=O)Nc1ccc(F)cc1	0.279
COc1ccc(/C=C/C(=O)OCC(=O)NCC2CCCO2)cc1 (stereo unspecified)	-0.3
CCOC(=O)Cn1c(C)cc(=O)c2cccc(C)c21	-0.0778
Cc1ccccc1NC(=O)c1cccc(S(=O)(=O)Oc2ccc([N+](=O)[O-])cc2)c1	-0.469
CC(C)(C)NC(=O)CN(C(=O)CNS(=O)(=O)c1ccccc1)c1ccc2c(c1)OCCO2	-0.181
COc1ccc(C(=O)N[C@H]2COC(C)(C)O[C@H]2c2ccccc2)cc1	-0.11
COc1ccc([N+](=O)[O-])cc1NC(=S)NC(NC(=O)C(c1ccccc1)c1ccccc1)C(Cl)(Cl)Cl (stereo unspecified)	-0.114
COC(=O)CNC(=O)c1ccccc1C	-0.175
N#CC1(P(=O)(c2ccccc2)c2ccccc2)CC1	-0.0596
CC(=O)COC(=O)CNC(=O)c1ccc(Br)cc1	0.0805
COc1ccc2cc3cc(C(=O)NCCN4CCc5ccccc5C4)sc3nc2c1	0.0144
O=C(CSc1nnc(Cn2cnc3ccccc32)o1)c1ccccc1	-0.339
CC(=O)OCCCNc1cc(Sc2ccc(C)cc2)c2nonc2c1[N+](=O)[O-]	0.452
N#CCC(=O)NN=C1CCCCCCCCCCC1	-0.118

SMILES	z-score
COC(=O)CC(NS(=O)(=O)c1cccs1)c1ccccc1Cl (stereo unspecified)	-0.122
Cc1noc(C)c1CSCC(=O)Nc1nc2ccc(Oc3ccccc3)cc2s1	1.43
CCOc1ccc(-c2c[n+]3c(n2-c2ccccc2)CCCCC3)cc1	0.264
CC(C)OC(=O)Cn1nnc(-c2ccccc2)n1	-0.0359
CC(=O)Nc1cccc(/C(C)=N/NC(=O)c2ccccc2Cl)c1	-0.0913
COc1cc(O)c2c(c1)OC(C)(C)CC2=O	-0.347
Cc1ccc(/C=N/NC(=O)CSc2nc3ccccc3n2C)s1	0.239
CCOC(=O)C1=C(C)NC2=C(C1c1ccc([N+](=O)[O-])cc1)S(=O)(=O)c1ccccc12 (stereo unspecified)	-0.175
Cc1n[nH]c(C)c1S(=O)(=O)N1CCN(C(=O)c2ccco2)CC1	-0.425
COc1cc(C(=O)Nc2cccc(-c3nncn3C)c2)cc(OC)c1OC	-1.15
COc1cc(NC(=O)c2ccc(NS(=O)(=O)c3c(C)noc3C)cc2)cc(OC)c1	-1.09
O=C(Cn1cnc2c(oc3ccccc32)c1=O)NCC1CCCO1 (stereo unspecified)	-0.243
Cc1ccc(C(=O)C(C)OC(=O)C2CC(=O)N(C3CCCCC3)C2)cc1 (stereo unspecified)	0.22
Oc1ccc2cccnc2c1	-0.405
COc1ccc(C(=O)NC(=S)N(CCC(C)C)c2c(N)n(Cc3ccccc3)c(=O)[nH]c2=O)cc1	-0.0755
Cc1ccc(CNC(=O)C23CN(Cc4ccccc4)CC2C(c2ccc([N+](=O)[O-])cc2)=NO3)o1 (stereo unspecified)	-0.355
COc1cc(OC)cc(C(=O)NC(=S)NNC(=O)c2cnccn2)c1	1.07
CC1CCCCN1C(=O)CSc1ccc(-c2ccc(F)cc2)nn1 (stereo unspecified)	-0.71
CCOc1ccc(CN2CCN(C(=O)c3ccccc3)CC2)cc1	-0.0651
COc1ccccc1N1CCN(CCCOc2ccc(F)cc2)CC1	0.762
COCCn1cc(C(=O)N2CCN(C)CC2)c2c3ccccc3n(C)c2c1=O	0.38
Cc1ccc(S(=O)(=O)c2nc(C)oc2NCc2ccccc2)cc1	-0.232
O=C(COC(=O)c1cc([N+](=O)[O-])ccc1NCc1ccccc1)NC1CCCCC1	-0.709
Cc1ccc(C)c(NC(=S)NNC(=O)c2csc3c2CCC(C)C3)c1 (stereo unspecified)	active: 13.8

SMILES	z-score
O=S(=O)(/N=C(/Nc1ccc(F)cc1F)c1ccccc1)c1ccc(Br)cc1	-0.0866
Nc1cccc(S(=O)(=O)NC2=NCCC2)c1	-0.0355
Cc1ccccc1CN1CCN(Cc2ccccc2C(F)(F)F)CC1	-0.0939
CN1CCN(C(=O)Cn2c(=O)oc3cc(S(=O)(=O)NCc4ccccc4)ccc32)CC1	-0.198
O=C(c1ccc2c(=O)n3c(nc2c1)CCCCC3)N1CCN(Cc2ccccc2)CC1	0.219
CN(C(=S)Nc1ccccc1F)C1(c2ccccc2Cl)CCCCC1=O (stereo unspecified)	0.215
O=C(Nc1cccnc1)c1cccc(F)c1	-0.339
COc1ccccc1C(=O)NC(C)c1ccccc1 (stereo unspecified)	-0.0683
Cc1nn(CCC(=O)NNC(=S)Nc2ccc(F)cc2)c(C)c1[N+](=O)[O-]	0.0528
O=C(CSc1nc(-c2ccccc2)nn1C(=O)c1ccccc1)Nc1cccc([N+](=O)[O-])c1	-0.523
O=C(c1cccnc1)N1CCN(S(=O)(=O)c2ccc(Cl)cc2)CC1	0.335
O=C(CCCc1ccccc1)NCCN1CCOCC1	-0.295
Cc1ccc(OCc2nc(-c3ccccc3)no2)c(C)c1	-0.0822
CCc1ccc2c(c1)c1nc(C)sc1n2CC(=O)OC	0.0252
CC(=O)n1nc(-c2cccnc2)nc1N	0.0439
O=C1c2ccccc2C(=O)N1CC(=O)N1c2ccccc2Sc2ccc(C(F)(F)F)cc21	-0.314
Cc1nn2c3cc(N4CCOCC4)ccc3nc2c2ccccc12	1.4
CC(C)c1ccc(CN2CCC(C(=O)NCc3cccnc3)CC2)cc1	0.0452
CCOc1cc(C(=S)N2CCOCC2)ccc1O	-0.0369
COc1ccc(CCN2C(=O)c3ccncc3C2=O)cc1OC	-0.0439
Nn1c(SCC(=O)Nc2ccc3c(c2)OCO3)nnc1-c1ccncc1	-0.176
O=C(c1cc(-c2ccccc2)nc2ccccc12)N1N=C(C(F)F)CC1(O)C(F)F (stereo unspecified)	-0.111
CCOC(=O)c1c(NC(=O)CSc2nncs2)sc(C)c1C	-0.535
